The list shows a part of the results. Repeats are few or missing, and single values can be far off.
How the values were obtained:
Test in all cases: cell count relative to DMSO control; melanoma cells; higher = more viable cells
Conditions in all cases: library dose: standard library concentration; 72 h
G361 = system: G361
IPC-298 = system: IPC-298
IST-MEL1 = system: IST-MEL1
LB2518-MEL = system: LB2518-MEL
LOXIMVI = system: LOXIMVI
MEL-HO = system: MEL-HO
MZ2-MEL = system: MZ2-MEL
MeWo = system: MeWo
RPMI7951 = system: RPMI7951
RVH-421 = system: RVH-421
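Also: cells treated in 1,536-well plates, then fixed and DAPI-stained, with nuclei counted from automated high-throughput microscope images.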

Compound: Cc1ccc(Nc2nccc(N(C)c3ccc4c(C)n(C)nc4c3)n2)cc1S(N)(=O)=O [Pazopanib] + CC(C)C[C@H](NC(=O)[C@H](Cc1ccccc1)NC(=O)c1cnccn1)B(O)O [Bortezomib] (first compound 2 µM, partner dose 0.005 µM)
- cell count (G361): 0.86%
- cell count (IPC-298): 11.4%
- cell count (IST-MEL1): 6.27%
- cell count (LB2518-MEL): 2.62%
- cell count (LOXIMVI): 26%
- cell count (MEL-HO): 28.5%
- cell count (MZ2-MEL): 6.13%
- cell count (MeWo): 14.9%
- cell count (RPMI7951): 2.34%
- cell count (RVH-421): 5.77%

Compound: O=C(/C=C/c1cccnc1)NCCCCC1CCN(C(=O)c2ccccc2)CC1 + Nc1cccc2c1CN(C1CCC(=O)NC1=O)C2=O [lenalidomide] (first compound 0.05 µM, partner dose 5 µM)
- cell count (G361): 6.38%
- cell count (IPC-298): 34.4%
- cell count (IST-MEL1): 69.7%
- cell count (LB2518-MEL): 63%
- cell count (LOXIMVI): 54%
- cell count (MEL-HO): 42.7%
- cell count (MZ2-MEL): 38.3%
- cell count (MeWo): 104%
- cell count (RPMI7951): 136%
- cell count (RVH-421): 32%

Compound: Cc1ccc(Nc2nccc(N(C)c3ccc4c(C)n(C)nc4c3)n2)cc1S(N)(=O)=O [Pazopanib] + OCCn1cc(-c2cnc3nnn(Cc4ccc5ncccc5c4)c3n2)cn1 [PF04217903] (first compound 2 µM, partner dose 5 µM)
- cell count (G361): 73.5%
- cell count (IPC-298): 93%
- cell count (IST-MEL1): 100%
- cell count (LB2518-MEL): 85%
- cell count (LOXIMVI): 97.3%
- cell count (MEL-HO): 87.1%
- cell count (MZ2-MEL): 85.2%
- cell count (MeWo): 95.3%
- cell count (RPMI7951): 98.8%
- cell count (RVH-421): 118%

Compound: CC1(C)CCC(c2ccc(Cl)cc2)=C(CN2CCN(c3ccc(C(=O)NS(=O)(=O)c4ccc(N[C@H](CCN5CCOCC5)CSc5ccccc5)c(S(=O)(=O)C(F)(F)F)c4)cc3)CC2)C1 + COCC[n+]1c2c(n(Cc3cnccn3)c1C)C(=O)c1ccccc1C2=O [YM155] (first compound 2 µM, partner dose 0.002 µM)
- cell count (G361): 47.8%
- cell count (IPC-298): 32.9%
- cell count (IST-MEL1): 23%
- cell count (LB2518-MEL): 10.4%
- cell count (LOXIMVI): 16%
- cell count (MEL-HO): 39.1%
- cell count (MZ2-MEL): 4.08%
- cell count (MeWo): 41.4%
- cell count (RPMI7951): 14.5%
- cell count (RVH-421): 74.7%

Compound: O=C(/C=C/c1cccnc1)NCCCCC1CCN(C(=O)c2ccccc2)CC1 + COc1ccc(COc2ccc(Cc3cnc(N)nc3N)cc2OC)cc1 [GW2580] (first compound 0.05 µM, partner dose 5 µM)
- cell count (G361): 2.21%
- cell count (IPC-298): 27.1%
- cell count (IST-MEL1): 66.1%
- cell count (LB2518-MEL): 58.7%
- cell count (LOXIMVI): 60.3%
- cell count (MEL-HO): 45.7%
- cell count (MZ2-MEL): 42.7%
- cell count (MeWo): 90.2%
- cell count (RPMI7951): 88%
- cell count (RVH-421): 44%

Compound: Cc1ccc(Nc2nccc(N(C)c3ccc4c(C)n(C)nc4c3)n2)cc1S(N)(=O)=O [Pazopanib] + CCCCCCCCCCCC1=C(O)C(=O)C=C(O)C1=O [Embelin] (first compound 2 µM, partner dose 6 µM)
- cell count (G361): 49.9%
- cell count (IPC-298): 41.6%
- cell count (IST-MEL1): 57.2%
- cell count (LB2518-MEL): 58.2%
- cell count (LOXIMVI): 109%
- cell count (MEL-HO): 67%
- cell count (MZ2-MEL): 57.4%
- cell count (MeWo): 82.2%
- cell count (RPMI7951): 62.8%
- cell count (RVH-421): 71.2%

Compound: O=C(/C=C/c1cccnc1)NCCCCC1CCN(C(=O)c2ccccc2)CC1 + COCC[n+]1c2c(n(Cc3cnccn3)c1C)C(=O)c1ccccc1C2=O [YM155] (first compound 0.05 µM, partner dose 0.002 µM)
- cell count (G361): 4.51%
- cell count (IPC-298): 21.8%
- cell count (IST-MEL1): 25.7%
- cell count (LB2518-MEL): 25.7%
- cell count (LOXIMVI): 50%
- cell count (MEL-HO): 29.7%
- cell count (MZ2-MEL): 8.81%
- cell count (MeWo): 42.9%
- cell count (RPMI7951): 30.1%
- cell count (RVH-421): 93%

Compound: Cc1ccc(Nc2nccc(N(C)c3ccc4c(C)n(C)nc4c3)n2)cc1S(N)(=O)=O [Pazopanib] + COc1ccc(Cl)c(Nc2nc3ccccc3nc2NS(=O)(=O)c2cccc(NC(=O)C(C)(C)N)c2)c1 [XL147] (first compound 2 µM, partner dose 4 µM)
- cell count (G361): 60.1%
- cell count (IPC-298): 51.2%
- cell count (IST-MEL1): 66.9%
- cell count (LB2518-MEL): 73.2%
- cell count (LOXIMVI): 98.4%
- cell count (MEL-HO): 74.1%
- cell count (MZ2-MEL): 46.7%
- cell count (MeWo): 61.9%
- cell count (RPMI7951): 69.8%
- cell count (RVH-421): 66.3%

Compound: Cc1ccc(Nc2nccc(N(C)c3ccc4c(C)n(C)nc4c3)n2)cc1S(N)(=O)=O [Pazopanib] + COc1cc(Nc2ncc(F)c(Nc3ccc4c(n3)NC(=O)C(C)(C)O4)n2)cc(OC)c1OC [Tamatinib] (first compound 2 µM, partner dose 2 µM)
- cell count (G361): 64.7%
- cell count (IPC-298): 69.4%
- cell count (IST-MEL1): 83.9%
- cell count (LB2518-MEL): 75.6%
- cell count (LOXIMVI): 32%
- cell count (MEL-HO): 78.5%
- cell count (MZ2-MEL): 76.5%
- cell count (MeWo): 67.9%
- cell count (RPMI7951): 40.4%
- cell count (RVH-421): 87%

Compound: CC1(C)CCC(c2ccc(Cl)cc2)=C(CN2CCN(c3ccc(C(=O)NS(=O)(=O)c4ccc(N[C@H](CCN5CCOCC5)CSc5ccccc5)c(S(=O)(=O)C(F)(F)F)c4)cc3)CC2)C1 + Cn1cncc1[C@@](N)(c1ccc(Cl)cc1)c1ccc2c(c1)c(-c1cccc(Cl)c1)cc(=O)n2C [tipifarnib] (first compound 2 µM, partner dose 0.05 µM)
- cell count (G361): 56.5%
- cell count (IPC-298): 79.8%
- cell count (IST-MEL1): 40.1%
- cell count (LB2518-MEL): 54.4%
- cell count (LOXIMVI): 34.2%
- cell count (MEL-HO): 47.3%
- cell count (MZ2-MEL): 94.5%
- cell count (MeWo): 70.5%
- cell count (RPMI7951): 28.8%
- cell count (RVH-421): 39.4%

Compound: Cc1ccc(Nc2nccc(N(C)c3ccc4c(C)n(C)nc4c3)n2)cc1S(N)(=O)=O [Pazopanib] + O=C(O)C(=O)Nc1sc2c(c1C(=O)O)CCNC2 [TCS401] (first compound 2 µM, partner dose 8.33333 µM)
- cell count (G361): 74.9%
- cell count (IPC-298): 76.5%
- cell count (IST-MEL1): 96.7%
- cell count (LB2518-MEL): 84.4%
- cell count (LOXIMVI): 90.2%
- cell count (MEL-HO): 84.8%
- cell count (MZ2-MEL): 89.5%
- cell count (MeWo): 76.6%
- cell count (RPMI7951): 75.3%
- cell count (RVH-421): 93.5%

Compound: Cc1ccc(Nc2nccc(N(C)c3ccc4c(C)n(C)nc4c3)n2)cc1S(N)(=O)=O [Pazopanib] + CN(c1ncccc1CNc1nc(Nc2ccc3c(c2)CC(=O)N3)ncc1C(F)(F)F)S(C)(=O)=O [PF562271] (first compound 2 µM, partner dose 0.4 µM)
- cell count (G361): 71.7%
- cell count (IPC-298): 73.6%
- cell count (IST-MEL1): 92.4%
- cell count (LB2518-MEL): 61.7%
- cell count (LOXIMVI): 103%
- cell count (MEL-HO): 88.2%
- cell count (MZ2-MEL): 65.7%
- cell count (MeWo): 80.1%
- cell count (RPMI7951): 33.9%
- cell count (RVH-421): 80.3%

Compound: Cc1ccc(Nc2nccc(N(C)c3ccc4c(C)n(C)nc4c3)n2)cc1S(N)(=O)=O [Pazopanib] + CCN(CC)CCCCNc1ncc2cc(-c3cc(OC)cc(OC)c3)c(NC(=O)NC(C)(C)C)nc2n1 [PD173074] (first compound 2 µM, partner dose 0.5 µM)
- cell count (G361): 68.2%
- cell count (IPC-298): 71.4%
- cell count (IST-MEL1): 103%
- cell count (LB2518-MEL): 70.2%
- cell count (LOXIMVI): 79.8%
- cell count (MEL-HO): 94%
- cell count (MZ2-MEL): 62.6%
- cell count (MeWo): 83.2%
- cell count (RPMI7951): 85.9%
- cell count (RVH-421): 79.2%

Compound: Cc1ccc(Nc2nccc(N(C)c3ccc4c(C)n(C)nc4c3)n2)cc1S(N)(=O)=O [Pazopanib] + Cn1cnc2c(F)c(Nc3ccc(Br)cc3Cl)c(C(=O)NOCCO)cc21 [selumetinib] (first compound 2 µM, partner dose 0.075 µM)
- cell count (G361): 60.4%
- cell count (IPC-298): 69.6%
- cell count (IST-MEL1): 87.2%
- cell count (LB2518-MEL): 56.2%
- cell count (LOXIMVI): 132%
- cell count (MEL-HO): 98.1%
- cell count (MZ2-MEL): 75.7%
- cell count (MeWo): 79.4%
- cell count (RPMI7951): 69.6%
- cell count (RVH-421): 95.7%

Compound: CC1(C)CCC(c2ccc(Cl)cc2)=C(CN2CCN(c3ccc(C(=O)NS(=O)(=O)c4ccc(N[C@H](CCN5CCOCC5)CSc5ccccc5)c(S(=O)(=O)C(F)(F)F)c4)cc3)CC2)C1 + C[C@@H](N)c1ccc(C(=O)Nc2ccnc3[nH]ccc23)cc1 [RKI983] (first compound 2 µM, partner dose 2 µM)
- cell count (G361): 42%
- cell count (IPC-298): 87%
- cell count (IST-MEL1): 73.2%
- cell count (LB2518-MEL): 72.9%
- cell count (LOXIMVI): 70.6%
- cell count (MEL-HO): 30.9%
- cell count (MZ2-MEL): 44.7%
- cell count (MeWo): 51.6%
- cell count (RPMI7951): 11.4%
- cell count (RVH-421): 38.5%

Compound: CC1(C)CCC(c2ccc(Cl)cc2)=C(CN2CCN(c3ccc(C(=O)NS(=O)(=O)c4ccc(N[C@H](CCN5CCOCC5)CSc5ccccc5)c(S(=O)(=O)C(F)(F)F)c4)cc3)CC2)C1 + O=C(O)c1ccc(-c2c[nH]c3ncc(-c4ccccc4)cc23)cc1C1CCCC1 [GSK650394] (first compound 2 µM, partner dose 0.8 µM)
- cell count (G361): 51.9%
- cell count (IPC-298): 89.4%
- cell count (IST-MEL1): 18.8%
- cell count (LB2518-MEL): 81%
- cell count (LOXIMVI): 48.7%
- cell count (MEL-HO): 50.8%
- cell count (MZ2-MEL): 90.4%
- cell count (MeWo): 80.6%
- cell count (RPMI7951): 33%
- cell count (RVH-421): 43.4%

Compound: O=C(/C=C/c1cccnc1)NCCCCC1CCN(C(=O)c2ccccc2)CC1 + Cn1c(=O)n(-c2ccc(C(C)(C)C#N)cc2)c2c3cc(-c4cnc5ccccc5c4)ccc3ncc21 [NVP-BEZ235] (first compound 0.05 µM, partner dose 0.02 µM)
- cell count (G361): 4.44%
- cell count (IPC-298): 28.8%
- cell count (IST-MEL1): 58.3%
- cell count (LB2518-MEL): 57.7%
- cell count (LOXIMVI): 70.8%
- cell count (MEL-HO): 46.4%
- cell count (MZ2-MEL): 28.4%
- cell count (MeWo): 53.6%
- cell count (RPMI7951): 62.6%
- cell count (RVH-421): 50.7%

Compound: CC1(C)CCC(c2ccc(Cl)cc2)=C(CN2CCN(c3ccc(C(=O)NS(=O)(=O)c4ccc(N[C@H](CCN5CCOCC5)CSc5ccccc5)c(S(=O)(=O)C(F)(F)F)c4)cc3)CC2)C1 + NC1(c2ccc(-c3nc4ccn5c(=O)[nH]nc5c4cc3-c3ccccc3)cc2)CCC1 [MK2206] (first compound 2 µM, partner dose 2 µM)
- cell count (G361): 60.5%
- cell count (IPC-298): 93.4%
- cell count (IST-MEL1): 58.1%
- cell count (LB2518-MEL): 68.4%
- cell count (LOXIMVI): 36.6%
- cell count (MEL-HO): 35.2%
- cell count (MZ2-MEL): 79.6%
- cell count (MeWo): 68.9%
- cell count (RPMI7951): 21.3%
- cell count (RVH-421): 30.9%

Compound: CC1(C)CCC(c2ccc(Cl)cc2)=C(CN2CCN(c3ccc(C(=O)NS(=O)(=O)c4ccc(N[C@H](CCN5CCOCC5)CSc5ccccc5)c(S(=O)(=O)C(F)(F)F)c4)cc3)CC2)C1 + NCC(=O)Nc1ccc(-n2nc(C(F)(F)F)cc2-c2ccc3c(ccc4ccccc43)c2)cc1 [OSU03012] (first compound 2 µM, partner dose 5 µM)
- cell count (G361): 37.7%
- cell count (IPC-298): 55.9%
- cell count (IST-MEL1): 59%
- cell count (LB2518-MEL): 75.4%
- cell count (LOXIMVI): 29.7%
- cell count (MEL-HO): 48.1%
- cell count (MZ2-MEL): 77.5%
- cell count (MeWo): 72.5%
- cell count (RPMI7951): 21%
- cell count (RVH-421): 43.5%
